# Laboratory results from article PMC12136788.
# Some of the results follow.
# B1: chrX:72692514:72692515:+_ENSMUSG00000031201_ENSMUST00000033544|mus_mus|FALSE|FALSE (ssRNA)
# RNA: GGGAGUUCUACAGUCCGACGAUCUACUGCAGAUUCAAGGCAUACUUUCCCAAUAGUGAUAUGAGGUACAAUAUGGAUUGGGAUUUCAAUUCUCUCAUACUCUGAGCUUUUUUGGGCUUGUAUGGAUUGGAAGCAAGUAUAGAGCAACAGAGGAUUGAGCAUCA
# B2: chr4:95202638:95202639:+_ENSG00000163104_ENST00000354268|hu_hu|motif|central (ssRNA)
# RNA: GGGAGUUCUACAGUCCGACGAUCUAAUAGAACCUCUAAGAUAUCCAGCAUCAUGGUAAAUUGGCUAAAUAACACAACUCGGUCACCCUUCUGUUUCAAUUCAGACAAGAUGCAUCCUAAAACUCGAAAUUUUCCAGAAUCUAACAACAGAGGAUUGAGCAUCA
# B3: chr9:135205225:135205226:-_ENSG00000107290_ENST00000224140|hu_hu|motif|central (ssRNA)
# RNA: GGGAGUUCUACAGUCCGACGAUCUGCAGAAGUCAGAUCCACAAAAGUGUUACAUGGAGGUGCUUUGAAUUUUAUGUUUCGGAUAAUUUGCUUUAAGCAACUUUGUAGCUCAUGGGUUUCCUGACUAGUCAACUGCCAACCUAGCAACAGAGGAUUGAGCAUCA
# B4: 71194627_71194747_4563_CDS_ENSMUSG00000031386_ENSMUST00000033761|mouse|control|control (ssRNA)
# RNA: GGGAGUUCUACAGUCCGACGAUCCUGUGUUGGGAAAGAGGCCAGCAAUGUGGAACCAGCCUGGGAGGUGACAGUGGGCACUGCUACCACCUCUAAGCCCGACUCCAGGGUUCCAUGAGAGGAAGUAGCAUCAGGAAUCAGGGUCAACAGAGGAUUGAGCAUCA
# B5: chr1:66461122:66461123:+_ENSMUSG00000015222_ENSMUST00000114013|mus_mus|FALSE|FALSE (ssRNA)
# RNA: GGGAGUUCUACAGUCCGACGAUCUGGUGAUGGGAGAGGGACUGUGUACUUGUUGAACACACAGUAUCCCAUGUCUUCAAGUUGACUAUCUGGUUUUACAGUGACUGGGCUUUCAUCAGCGACAGGUGGCAAACUGGUACUACUCAACAGAGGAUUGAGCAUCA
# B6: chr6:86333760:86333761:-_ENSG00000135316_ENST00000355238|hu_mus|hu_hu_hu_mus_True|78_108 (ssRNA)
# RNA: GGGAGUUCUACAGUCCGACGAUCUUCUUCAAGAAUCUGCUCCUUGGUUUUACUCUUAGGAAUAGAGCCCACAAAAAGCCUAUUGUUGGCAACUGAGAUGCAGACACCAAUGUGCUUCCCGGAACGAAUUUCAUGAUUAUUAUACAACAGAGGAUUGAGCAUCA
# B7: 56890833_56890953_4882_3pUTR_ENSMUSG00000055296_ENSMUST00000068792|mouse|control|control (ssRNA)
# RNA: GGGAGUUCUACAGUCCGACGAUCUUCUCUUCUUCCCAGGUCAAAUUCUACGCAAACUCUUCAAGGUAAGUUAUGUUAGGGACUAAAAGACUCUUACCACCUCAUGUUAUCUAUUCUCUCUCUGUCCUAGGAAAAUUCCGUAAACAACAGAGGAUUGAGCAUCA
# B8: 202742338_202743782_536_CDS_ENSG00000117139_ENST00000367264|human|control|control (ssRNA)
# RNA: GGGAGUUCUACAGUCCGACGAUCAAACCCCAUCUUGGUAGCAAUUUUGGUCCAUUUUCUAUCCUUGCAAACAACUGCAAAUCCACCUUCUUCUGCAACUAACUUAUUAAGCUGAAAUAAGUCCAAGAUCUUCCUCUCCACAUGCAACAGAGGAUUGAGCAUCA
# B9: chr19:8913615:8913616:-_ENSMUSG00000071658_ENSMUST00000096259|mus_hu|mus_mus_mus_hu_False|38_48 (ssRNA)
# RNA: GGGAGUUCUACAGUCCGACGAUCAGGGUACCAAAACCUUCUGCCUGAAAUGGGUGCCCCACCCAGUAGGGAGUUGCAGCUGAAAGUAUCCGUAGCACUGACAGUUACUAUACGAAAGGAGGCCCCUGGGGAGGGCCAGGCCAGCAACAGAGGAUUGAGCAUCA
# B10: chr7:65705844:65705845:+_ENSG00000169902_ENST00000304842|hu_mus|hu_hu_hu_mus_False|8_88 (ssRNA)
# RNA: GGGAGUUCUACAGUCCGACGAUCAAACGGAUCUUUGUUACAUAAAUAAGGGGCUGGCUCCCCAUGUUUAACAAUGACCUCCAGAAGGAAGGCUUGCAUGGCAGAAUCUAGCACUUCAUCUGUGACACCAGCCUCAUCCAAGCGCAACAGAGGAUUGAGCAUCA
# B11: chr12:111929536:111929537:-_ENSMUSG00000021270_ENSMUST00000094361|mus_mus|motif|central (ssRNA)
# RNA: GGGAGUUCUACAGUCCGACGAUCUAAGAUGUAAUUUAAGCCAUCUUAAUUUGGUCUCCUAAGGAAUCCAGCUCAACAGCGGAACACUUCAGACCAGAGCAAACAUGAACAGUAGGUUACGUUACGUCUUAUAACAAACGCUCUCAACAGAGGAUUGAGCAUCA
# B12: chr1:10037540:10037541:+_ENSMUSG00000056763_ENSMUST00000071087|mus_mus|FALSE|FALSE (ssRNA)
# RNA: GGGAGUUCUACAGUCCGACGAUCCUUGGGCUGUUGUUGGCUGCUUGGUGGAAUGUUCUCCUUAGCCAUAGAGAUUAAUAUUUUACUGUUUUCAGAGAGUUUCUCUGACGCCUUUCCCUUCAUCUCCAUGUACGGUGGAUCACUCAACAGAGGAUUGAGCAUCA
# B13: chr9:119834795:119834796:+_ENSMUSG00000032512_ENSMUST00000036561|mus_mus|motif|central (ssRNA)
# RNA: GGGAGUUCUACAGUCCGACGAUCCAAACAUGAACCACAAUAUAAAUAUCAAACCAACUCACUGUGAGAUCUUUUUACUCGGGUAACAUAAACUUUAGGUAGCAUCUGAAUGAAACUGCAACUUCAGCAUGGCCGUAAGUUCUGCAACAGAGGAUUGAGCAUCA
# B14: chr2:20454729:20454730:-_ENSG00000055917_ENST00000338086|hu_mus|FALSE|FALSE (ssRNA)
# RNA: GGGAGUUCUACAGUCCGACGAUCAACAUAAUUGCCAUACUGAUCCUGUACCAACUGUUCUGUGUGUUGGUGAAGUUCUUCUAAGAUGGGUAAGGUCUGCUCUGCCGUGCAGUGCUCUAAGAUACGCUGAAUGACUCUGCAGCCCAACAGAGGAUUGAGCAUCA
# Target: T1, UNK ZnF1-3 (human, UniProt Q9C0B0 31-174)
# T1 sequence: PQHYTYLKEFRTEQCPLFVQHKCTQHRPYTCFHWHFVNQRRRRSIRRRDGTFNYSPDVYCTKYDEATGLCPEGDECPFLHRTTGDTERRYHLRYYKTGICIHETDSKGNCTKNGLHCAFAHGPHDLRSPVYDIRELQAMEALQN
# Assay: nsRBNS (natural sequence RNA bind-n-seq); RBNS binding buffer (assumed for nsRBNS): 25 mM Tris pH 7.5, 150 mM KCl, 3 mM MgCl2, 0.01% Triton X-100, 500 ug/ml BSA, 20 U/ml SUPERase-In, 4 C; UNK is unkempt and MSI1 is Musashi-1; names of the RNAs are library labels; protein concentration not given here; high values mean tight binding
row,Binder,binding signal [enrichment R]
1,B1,1.62
2,B2,1.21
3,B3,1.24
4,B4,1.29
5,B5,0.635
6,B6,0.842
7,B7,1.01
8,B8,1.06
9,B9,1.21
10,B10,0.731
11,B11,0.79
12,B12,0.405
13,B13,1.21
14,B14,0.857
